Test results published in EP2093218A1, “Arylalkyl substituted imidazolidinones” (Fariello, Ruggero, priority 2008, dated 2009).

System: site 2 of rat brain sodium channels
Conditions: @ 30 uM

SMILES: C[C@H]1C(=O)NC(C)(C)N1Cc1ccc(OCc2cccc(F)c2)cc1 [Example 1, (S)-(-)-1-[4-(3-Fluoro-benzyloxy)-benzyl]-2,2,5-trimethyl-imidazolidin-4-one]
- inhibition of the binding of [^3H]-batrachotoxin at site 2 of rat brain sodium channels: 83%
